In the supplement of paper PMC10369915:
Some of the results follow. Rule as the data show it: active = 3.2 or more and inactive = the rest. Only a few entries rise above the background.

B1: TEK_Y899_Y897C (peptide)
chain: HRGCLYLAIEY
B2: TH_Y230_R233H (peptide)
chain: FSDQVYRQHRK
B3: TGFBR2_Y336 (peptide)
chain: GNLQEYLTRHV
B4: TGM1_Y370_YF (peptide)
chain: FLRTGYSVPFG
B5: TERT_Y707_P704S (peptide)
chain: PPSELYFVKVD
B6: TMC2_Y209_YF (peptide)
chain: KQLFAYKMLMA
B7: TMED3_Y85 (peptide)
chain: ETKKQYDSFTY
B8: TGM1_Y370_V372I_YF (peptide)
chain: FLRTGYSIPFG
B9: THAP1_Y14_G9C (peptide)
chain: CCKNRYDKDKP
B10: TMEFF2_Y361 (peptide)
chain: QNTGHYSSDNT
B11: TFRC_Y20 (peptide)
chain: GEPLSYTRFSL
B12: TGM1_Y134 (peptide)
chain: HHTDEYEYDEL
B13: TGM1_Y134_Y134C_YF (peptide)
chain: HHTDECEFDEL
B14: TLR5_Y108 (peptide)
chain: GSSKIYFLHPD
B15: TMCC2_Y473_S475G (peptide)
chain: VSSPKYGGDDE
B16: TH_Y419 (peptide)
chain: GEVKAYGAGLL
B17: TGM1_Y312_R307G (peptide)
chain: GRGMPYGGRGD
B18: TGM1_Y134_Y134C (peptide)
chain: HHTDECEYDEL

molecular target: SHP2 C-SH2 domain E139D; experiment: enrichment score (SH2-bound / input frequency) (ratio); bacterial display of known human phosphotyrosine sites (pTyr-Var adds point mutants) read by sequencing; higher = stronger binding; tyrosines were phosphorylated by kinases first; conditions: peptide library: pTyr-Var
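Also: displayed peptides selected on beads carrying the immobilized SH2 domain, with library peptides lacking any tyrosine serving as negative controls.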

Enrichment score, inactive:
B1 0.399, B2 0.655, B3 0.954, B4 1.24, B5 0.861, B6 2.21, B7 0.552, B8 1.67, B9 0.862, B10 0.494, B11 0.756, B12 0.756, B13 0.669, B14 0.806, B15 0.456, B16 0.676, B17 1.29, B18 0.77

molecular target: SHP2 C-SH2 domain wild-type; experiment: as above; conditions: peptide library: pTyr-Var

Enrichment score, inactive:
B1 0.876, B2 0.537, B3 0.851, B4 1.31, B5 0.792, B6 1.9, B7 0.489, B8 1.91, B9 0.952, B10 0.419, B11 0.698, B12 0.775, B13 0.469, B14 0.789, B15 0.499, B16 0.602, B17 0.608, B18 0.849

molecular target: SHP2 N-SH2 domain L43F; experiment: as above; conditions: peptide library: pTyr-Var

Enrichment score, inactive:
B1 0.628, B2 0.373, B3 0.643, B4 2.13, B5 0.886, B6 1.98, B7 0.451, B8 2.18, B9 0.946, B10 0.487, B11 0.792, B12 0.553, B13 0.526, B14 0.648, B15 0.536, B16 0.65, B17 0.643, B18 0.672

molecular target: SHP2 N-SH2 domain T42A; experiment: as above; conditions: peptide library: pTyr-Var

Enrichment score, inactive:
B1 0.595, B2 0.418, B3 0.631, B4 2.71, B5 0.673, B6 1.72, B7 0.503, B9 0.685, B10 0.536, B11 0.854, B12 0.46, B13 0.828, B14 0.9, B15 0.342, B16 0.535, B17 0.44, B18 0.557

Enrichment score, active:
B8 4.2

molecular target: SHP2 N-SH2 domain T52S; experiment: as above; conditions: peptide library: pTyr-Var

Enrichment score, inactive:
B1 0.462, B2 0.7, B3 0.863, B4 1.92, B5 0.952, B6 2.03, B7 0.433, B8 2.68, B9 1.4, B10 0.454, B11 0.712, B12 0.58, B13 0.666, B14 1.02, B15 0.44, B16 0.499, B17 0.743, B18 0.736

molecular target: SHP2 N-SH2 domain wild-type; experiment: as above; conditions: peptide library: pTyr-Var

Enrichment score, inactive:
B1 0.51, B2 0.583, B3 1.06, B4 1.17, B5 0.79, B6 2.13, B7 0.417, B8 1.56, B9 1.05, B10 0.751, B11 1.05, B12 0.623, B13 0.521, B14 0.657, B15 0.469, B16 0.797, B17 0.672, B18 0.64
